# Test results taken from the supplement of paper PMC8728848.
# The other results are listed elsewhere or left out.
# How the values were obtained:
# Experiment in all cases: glycan array binding signal (z-score within array); higher = stronger binding
# Conditions in all cases: glycan notation: IUPAC condensed, linker removed
# [1] = molecular target: Fuc(a1-2)[GalNAc(a1-3)]Gal(b1-3)GlcNAc(b1-3)GalNAc
# Method in brief: (§1)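 From the Consortium for Functional Glycomics database, 3228 arrays were curated, keeping only those whose protein sequence was available. Binding is given as a within-array Z-score averaged across arrays sharing a protein sequence and across linkers. Negative Z-scores can be read as non-binding.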
# [2] = molecular target: Fuc(a1-2)[GalNAc(a1-3)]Gal(b1-4)Glc
# Method in brief: as §1
# [3] = molecular target: Fuc(a1-2)[GalNAc(a1-3)]Gal(b1-4)GlcNAc
# Method in brief: as §1
# [4] = molecular target: Fuc(a1-2)[GalNAc(a1-3)]Gal(b1-4)GlcNAc(b1-2)Man(a1-3)[Fuc(a1-2)[GalNAc(a1-3)]Gal(b1-4)GlcNAc(b1-2)Man(a1-6)]Man(b1-4)GlcNAc(b1-4)GlcNAc
# Method in brief: as §1
# [5] = molecular target: Fuc(a1-2)[GalNAc(a1-3)]Gal(b1-4)GlcNAc(b1-2)Man(a1-3)[Fuc(a1-2)[GalNAc(a1-3)]Gal(b1-4)GlcNAc(b1-2)Man(a1-6)]Man(b1-4)GlcNAc(b1-4)[Fuc(a1-6)]GlcNAc
# Method in brief: as §1
# [6] = molecular target: Fuc(a1-2)[GalNAc(a1-3)]Gal(b1-4)GlcNAc(b1-3)Gal(b1-4)GlcNAc
# Method in brief: as §1
# [7] = molecular target: Fuc(a1-2)[GalNAc(a1-3)]Gal(b1-4)GlcNAc(b1-3)Gal(b1-4)GlcNAc(b1-3)Gal(b1-4)GlcNAc
# Method in brief: as §1
# [8] = molecular target: Fuc(a1-2)[GalNAc(a1-3)]Gal(b1-4)GlcNAc(b1-3)GalNAc
# Method in brief: as §1
# [9] = molecular target: Fuc(a1-2)[GalNAc(a1-3)]Gal(b1-4)[Fuc(a1-3)]GlcNAc
# Method in brief: as §1
# [10] = molecular target: Fuc(a1-2)[GalNAc(a1-3)]Gal(b1-4)[Fuc(a1-3)]GlcNAc(b1-3)GalNAc
# Method in brief: as §1
# [11] = molecular target: Fuc(a1-2)[GalNAc(a1-4)]Gal(b1-4)GlcNAc
# Method in brief: as §1
# [12] = molecular target: Fuc(a1-2)[GalNAc(b1-3)]Gal
# Method in brief: as §1
# Fuc(a1-3)GlcNAc = molecular target: Fuc(a1-3)GlcNAc
# Method in brief: as §1
# [13] = molecular target: Fuc(a1-3)[Gal(b1-4)]Glc6S
# Method in brief: as §1
# [14] = molecular target: Fuc(a1-3)[Gal(b1-4)]GlcNAc
# Method in brief: as §1
# [15] = molecular target: Fuc(a1-3)[Gal(b1-4)]GlcNAc(b1-2)Man(a1-3)[Fuc(a1-3)[Gal(b1-4)]GlcNAc(b1-2)Man(a1-6)]Man(b1-4)GlcNAc(b1-4)GlcNAc
# Method in brief: as §1
# [16] = molecular target: Fuc(a1-3)[Gal(b1-4)]GlcNAc(b1-2)Man(a1-3)[Fuc(a1-3)[Gal(b1-4)]GlcNAc(b1-2)Man(a1-6)]Man(b1-4)GlcNAc(b1-4)[Fuc(a1-6)]GlcNAc
# Method in brief: as §1
# [17] = molecular target: Fuc(a1-3)[Gal(b1-4)]GlcNAc(b1-3)Gal(b1-3)[Fuc(a1-4)]GlcNAc
# Method in brief: as §1
# [18] = molecular target: Fuc(a1-3)[Gal(b1-4)]GlcNAc(b1-3)GalNAc
# Method in brief: as §1
# [19] = molecular target: Fuc(a1-3)[Gal(b1-4)]GlcNAc(b1-4)Gal(b1-4)[Fuc(a1-3)]GlcNAc
# Method in brief: as §1
# [20] = molecular target: Fuc(a1-3)[Gal(b1-4)]GlcNAc(b1-4)Gal(b1-4)[Fuc(a1-3)]GlcNAc(b1-4)Gal(b1-4)[Fuc(a1-3)]GlcNAc
# Method in brief: as §1
# [21] = molecular target: Fuc(a1-3)[Gal(b1-4)]GlcNAc(b1-6)GalNAc
# Method in brief: as §1
# [22] = molecular target: Fuc(a1-3)[Gal(b1-4)]GlcNAc(b1-6)[Gal(b1-3)GlcNAc(b1-3)]Gal(b1-4)Glc
# Method in brief: as §1
# [23] = molecular target: Fuc(a1-3)[Gal(b1-4)]GlcNAc(b1-6)[Neu5Ac(a2-3)Gal(b1-3)]GalNAc
# Method in brief: as §1
# [24] = molecular target: Fuc(a1-3)[Gal(b1-4)]GlcNAc6S
# Method in brief: as §1
# [25] = molecular target: Fuc(a1-3)[Gal3S(b1-4)]GlcNAc
# Method in brief: as §1
# [26] = molecular target: Fuc(a1-3)[Gal3S(b1-4)]GlcNAc6S
# Method in brief: as §1
# [27] = molecular target: Fuc(a1-3)[GalNAc(b1-4)]GlcNAc
# Method in brief: as §1
# Fuc(a1-4)GlcNAc = molecular target: Fuc(a1-4)GlcNAc
# Method in brief: as §1
# Fuc(b1-3)GlcNAc = molecular target: Fuc(b1-3)GlcNAc
# Method in brief: as §1
# Gal(a1-2)Gal = molecular target: Gal(a1-2)Gal
# Method in brief: as §1
# Gal(a1-3)Gal = molecular target: Gal(a1-3)Gal
# Method in brief: as §1
# Gal(a1-3)Gal(b1-3)GlcNAc = molecular target: Gal(a1-3)Gal(b1-3)GlcNAc
# Method in brief: as §1
# [28] = molecular target: Gal(a1-3)Gal(b1-3)GlcNAc(b1-2)Man(a1-3)[Gal(a1-3)Gal(b1-3)GlcNAc(b1-2)Man(a1-6)]Man(b1-4)GlcNAc(b1-4)GlcNAc
# Method in brief: as §1
# [29] = molecular target: Gal(a1-3)Gal(b1-3)GlcNAc(b1-3)GalNAc
# Method in brief: as §1
# [30] = molecular target: Gal(a1-3)Gal(b1-3)[Fuc(a1-4)]GlcNAc(b1-2)Man(a1-3)[Gal(a1-3)Gal(b1-3)[Fuc(a1-4)]GlcNAc(b1-2)Man(a1-6)]Man(b1-4)GlcNAc(b1-4)GlcNAc
# Method in brief: as §1
# Gal(a1-3)Gal(b1-4)Glc = molecular target: Gal(a1-3)Gal(b1-4)Glc
# Method in brief: as §1
binder,measurement,setting,value
"ConA (Canavalia ensiformis), P02866 (protein) MAISKKSSLFLPIFTFITMFLMVVNKVSSSTHETNALHFMFNQFSKDQKDLILQGDATTGTDGNLELTRVSSNGSPQGSSVGRALFYAPVHIWESSAVVASFEATFTFLIKSPDSHPADGIAFFISNIDSSIPSGSTGRLLGLFPDANVIRNSTTIDFNAAYNADTIVAVELDTYPNTDIGDPSYPHIGIDIKSVRSKKTAKWNMQNGKVGTAHIIYNSVDKRLSAVVSYPNADSATVSYDVDLDNVLPEWVRVGLSASTGLYKETNTILSWSFTSKLKSNEIPDIATVV",glycan array binding signal (z-score),[1],-0.093
same,glycan array binding signal (z-score),[2],-0.296
same,glycan array binding signal (z-score),[3],-0.277
same,glycan array binding signal (z-score),[4],-0.206
same,glycan array binding signal (z-score),[5],-0.083
same,glycan array binding signal (z-score),[6],-0.196
same,glycan array binding signal (z-score),[7],0.306
same,glycan array binding signal (z-score),[8],-0.257
same,glycan array binding signal (z-score),[9],-0.163
same,glycan array binding signal (z-score),[10],-0.039
same,glycan array binding signal (z-score),[11],-0.24
same,glycan array binding signal (z-score),[12],-0.296
same,glycan array binding signal (z-score),Fuc(a1-3)GlcNAc,-0.268
same,glycan array binding signal (z-score),[13],-0.245
same,glycan array binding signal (z-score),[14],-0.281
same,glycan array binding signal (z-score),[15],-0.171
same,glycan array binding signal (z-score),[16],-0.25
same,glycan array binding signal (z-score),[17],0.051
same,glycan array binding signal (z-score),[18],-0.122
same,glycan array binding signal (z-score),[19],-0.2
same,glycan array binding signal (z-score),[20],-0.3
same,glycan array binding signal (z-score),[21],-0.107
same,glycan array binding signal (z-score),[22],-0.165
same,glycan array binding signal (z-score),[23],-0.159
same,glycan array binding signal (z-score),[24],-0.214
same,glycan array binding signal (z-score),[25],-0.253
same,glycan array binding signal (z-score),[26],-0.234
same,glycan array binding signal (z-score),[27],-0.292
same,glycan array binding signal (z-score),Fuc(a1-4)GlcNAc,-0.301
same,glycan array binding signal (z-score),Fuc(b1-3)GlcNAc,-0.239
same,glycan array binding signal (z-score),Gal(a1-2)Gal,-0.281
same,glycan array binding signal (z-score),Gal(a1-3)Gal,-0.255
same,glycan array binding signal (z-score),Gal(a1-3)Gal(b1-3)GlcNAc,-0.281
same,glycan array binding signal (z-score),[28],-0.035
same,glycan array binding signal (z-score),[29],-0.168
same,glycan array binding signal (z-score),[30],-0.024
same,glycan array binding signal (z-score),Gal(a1-3)Gal(b1-4)Glc,-0.229
